Laboratory results as given in PubChem BioAssay AID1460 (National Center for Advancing Translational Sciences (NCATS), 2008).
Several values for one entry are separate records, joined by “and”; a condition that tells them apart may be missing. Identical values can stand only once. Screen size: about 270,000 compounds; about 5,800 (2.1%) were called active. This list was built around the results that the source calls inconclusive (neither active nor inactive); the mix of calls is not that of the screen. Calls follow the shape of the dose curve; as a rule, active = well fitted inhibition curve with a large enough effect; inconclusive = small, poorly fitted or top-dose-only effect; inactive = flat fitted curve, though single readings scatter. Where the call is inconclusive, the potency comes from a doubtful curve fit.
% is scaled to controls: 0 for no effect and ±100 for the full control effect; potency is read from the fitted curve at half-maximal effect; tags tell the direction and shape of the fitted curve.
Also: nearly all actives have a fitted effect of over 55% in size.

Each compound was assayed against Microtubule-associated protein tau (Homo sapiens) (UniProt P10636) (assay: qHTS for Inhibitors of Tau Fibril Formation, Thioflavin T Binding). Conditions: recombinant tau K18 P301L (four-repeat tau fragment), heparin-induced fibrillization, ThT fluorescence; series mostly up to 57.4 µM; activity, negative = inhibition: at the top concentration.
Sequence of UniProt P10636 (P10636 whole entry, looked up, the tested form may be a part): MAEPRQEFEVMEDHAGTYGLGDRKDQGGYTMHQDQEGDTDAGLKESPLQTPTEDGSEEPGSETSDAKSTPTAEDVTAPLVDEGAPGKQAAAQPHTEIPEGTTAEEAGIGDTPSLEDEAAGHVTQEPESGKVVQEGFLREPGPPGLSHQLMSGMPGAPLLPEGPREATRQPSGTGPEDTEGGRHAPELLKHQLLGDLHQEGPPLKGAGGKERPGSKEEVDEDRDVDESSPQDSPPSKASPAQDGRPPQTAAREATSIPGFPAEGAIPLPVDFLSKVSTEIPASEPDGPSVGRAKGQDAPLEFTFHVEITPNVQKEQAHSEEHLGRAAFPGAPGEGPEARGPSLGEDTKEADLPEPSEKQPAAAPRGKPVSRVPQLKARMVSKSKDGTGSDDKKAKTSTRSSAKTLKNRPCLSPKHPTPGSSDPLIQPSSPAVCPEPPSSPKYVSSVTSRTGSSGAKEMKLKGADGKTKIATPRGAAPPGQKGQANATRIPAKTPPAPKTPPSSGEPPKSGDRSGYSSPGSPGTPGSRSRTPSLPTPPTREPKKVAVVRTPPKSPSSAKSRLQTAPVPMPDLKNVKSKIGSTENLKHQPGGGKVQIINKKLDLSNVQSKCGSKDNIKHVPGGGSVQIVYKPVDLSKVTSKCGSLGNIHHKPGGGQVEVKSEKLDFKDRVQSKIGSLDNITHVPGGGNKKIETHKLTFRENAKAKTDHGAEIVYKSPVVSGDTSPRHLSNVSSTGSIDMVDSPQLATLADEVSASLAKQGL
Summary of the method: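 Heparin-induced fibrillization of the P301L-mutant K18 repeat-domain fragment of human tau was followed by ThT binding in quantitative high-throughput format.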
With `CCCN(CCC)C(=O)Cn1c(=O)n(CCCCCC(=O)NCc2ccc3c(c2)OCO3)c(=O)c2sccc21` the “activity, negative = inhibition” value was inactive: 5.65%. `CCOc1ccccc1CNC(=O)c1oc2c(c1C)-c1[nH]ncc1CC2` was tested, and the “activity, negative = inhibition” value was inactive: -19.4%. For `CN(C)N=Nc1ccc2nc[nH]c2c1`, the Potency was active: 4.47 µM. In the case of `CCOc1ccccc1CNc1ccc(O)cc1`, the Potency is reported as active: 7.08 µM. For `CCC(Sc1ncnc2c1nnn2-c1ccc(F)cc1)C(=O)OC` (stereo not given), the Potency was inconclusive: 14.1 µM [inhibitor, partial curve]. `CCOC(=O)CSc1nc(N)c(C(=O)Nc2ccc(N(C)C)cc2)s1` was tested, and the Potency was active: 15.8 µM. For `O=C(Nc1nnc(-c2ccco2)o1)c1ccc([N+](=O)[O-])s1`, the Potency was inconclusive: 12.6 µM [inhibitor, partial curve]. `Cc1cc(C)c(C2C(C#N)=C(N)Oc3n[nH]c(C)c32)cc1CN1CCCC1` (stereo not given) was tested, and the Potency was inconclusive: 25.1 µM [inhibitor, single point]. For `Cc1[nH]c2ccccc2c1C(=O)CSc1ccccc1`, the Potency was inconclusive: 12.6 µM [inhibitor, partial curve]. `O=C(NNc1nc2ccc(F)cc2s1)c1cccc(F)c1` was tested, and the Potency was inconclusive: 15.8 µM [inhibitor, partial curve]. `CN(C(=O)COC(=O)/C=C/c1ccc2ccccc2n1)C1CCS(=O)(=O)C1` (stereo not given) was tested, and the Potency was inconclusive: 39.8 µM [inhibitor, single point]. For `Cn1c(N)c(C(=O)COC(=O)c2ccccn2)c(=O)n(C)c1=O`, the “activity, negative = inhibition” value was inactive: -0.487%. With `Cc1ccc(NC(=O)Cn2cnc3onc(-c4ccc(F)cc4)c3c2=O)c(Cl)c1` the Potency was inconclusive: 39.8 µM [activator, single point]. In the case of `Cc1ccc(S(=O)(=O)C(C#N)c2nc3ccccc3nc2N2CCCC2)cc1C` (stereo not given), the Potency is reported as inconclusive: 14.1 µM [inhibitor, partial curve]. With `COc1ccc(C2C(C#N)=C(N)Oc3c2oc(CO)cc3=O)cc1` (stereo not given) the “activity, negative = inhibition” value was inactive: -7.74%. For `O=c1nc(/C=C/c2cccn2-c2ccc([N+](=O)[O-])cc2)cc(C(F)(F)F)[nH]1`, the Potency was inconclusive: 22.4 µM [inhibitor, partial curve]. For `COc1ccccc1-c1cc2nc(C)c(CCC(=O)NCCc3cccc(C)c3)c(C)n2n1`, the Potency was inconclusive: 17.8 µM [inhibitor, partial curve, poor fit]. For `COc1cc(C(=O)N/N=C/c2sc(=O)n(-c3ccccc3)c2Cl)cc(OC)c1OC`, the Potency was inconclusive: 2.24 µM [inhibitor, partial curve]. `Cc1cc(Cl)ccc1N(CC(=O)NCCSCc1ccco1)S(C)(=O)=O` was tested, and the Potency was inconclusive: 22.4 µM [inhibitor, partial curve, poor fit]. With `C[n+]1cc2c3c(ccc2c2ccc4cc5c(cc4c21)OCO5)OCO3` the Potency was active: 20 µM and active: 15.8 µM and active: 28.2 µM. With `COc1cc(CN2CCN(Cc3ccc([N+](=O)[O-])cc3)CC2)c([N+](=O)[O-])cc1OC` the “activity, negative = inhibition” value was inactive: -12.6%. In the case of `Nc1ncccc1OCc1ccc(Cl)c(Cl)c1`, the Potency is reported as inconclusive: 12.6 µM [inhibitor, partial curve]. `COc1cccc(C(=O)n2c(SC)nc3cc4c(cc32)OCCO4)c1` was tested, and the Potency was inconclusive: 31.6 µM [inhibitor, single point]. For `CC(C)(C)c1ccc(/C=C2\SC(=O)N(CCNC(=O)c3cccc(S(=O)(=O)N4CCOCC4)c3)C2=O)cc1`, the Potency was inconclusive: 39.8 µM [inhibitor, single point]. `O=C(Nc1ccc(Cl)c(Cl)c1)Nc1ccccc1NS(=O)(=O)c1cccs1` was tested, and the Potency was inconclusive: 20 µM [inhibitor, partial curve]. In the case of `O=[N+]([O-])c1cccc(C2=N[C@@H](Cc3ccccc3)CO2)c1`, the Potency is reported as inconclusive: 14.1 µM [inhibitor, partial curve, poor fit]. For `CC(=O)N1CC(=O)N=C1SCC(=O)Nc1nc(-c2ccccc2)c(-c2ccccc2)s1`, the Potency was inconclusive: 25.1 µM [inhibitor, single point]. In the case of `O=C(O)c1cccc(-c2ccc(/C=N/Nc3nn[nH]n3)o2)c1`, the Potency is reported as inconclusive: 14.1 µM [inhibitor, partial curve]. With `COc1ccc(NC(=O)c2sc(NC(=O)COc3ccccc3)nc2C)cc1` the Potency was inconclusive: 4.47 µM [inhibitor, full curve]. In the case of `O=C(Nc1nc2ccc(F)cc2s1)c1nc(S(=O)(=O)Cc2ccccc2F)ncc1Cl`, the Potency is reported as active: 10 µM. With `CSc1nc(-c2ccccc2)nn1C(=O)c1ccco1` the Potency was inconclusive: 17.8 µM [inhibitor, partial curve, poor fit]. In the case of `COc1ccc(C(=O)/C=C/c2cn(CN3CCN(C)CC3)c3ccccc23)cc1`, the Potency is reported as active: 12.6 µM. `CN1C(=O)/C(=C/c2ccccc2Cl)Sc2ccc(C(=O)NCc3cccnc3)cc21` was tested, and the Potency was inconclusive: 35.5 µM [inhibitor, single point]. In the case of `OCCC#Cc1ccc(CN2CCN(Cc3ccsc3)C(CCO)C2)cc1` (stereo not given), the Potency is reported as active: 11.2 µM. `CCCC(=O)N(c1ccc2oc(=O)sc2c1)S(=O)(=O)c1cccs1` was tested, and the Potency was active: 31.6 µM. With `CSc1cccc(NC(=S)N(CCCN2CCCC2)Cc2cccs2)c1` the “activity, negative = inhibition” value was inactive: -8.71%. With `COc1ccc2cc(CN(CCCN3CCOCC3)Cc3nnnn3C3CCCC3)c(=O)[nH]c2c1` the Potency was inconclusive: 28.2 µM [inhibitor, single point]. `Cc1cccc(CC(=O)Nc2ccc3nc(N4CCC(C)CC4)cc(C)c3c2)c1` was tested, and the Potency was inconclusive: 3.55 µM [inhibitor, full curve]. For `CC(C)c1ccc(OCc2ccc(C(=O)N3CCN(c4ccccn4)CC3)cc2)cc1`, the Potency was inconclusive: 14.1 µM [inhibitor, partial curve]. For `COc1ccc(C2=C(Nc3ccccc3)c3ccccc3C2=O)cc1`, the Potency was inconclusive: 1.41 µM [inhibitor, full curve, poor fit]. For `Cc1c(C(=O)Nc2ccc(F)c(C(F)(F)F)c2)sc2nc(-c3ccccc3)cn12`, the “activity, negative = inhibition” value was inactive: -9.86%. In the case of `Cc1onc(-c2c(Cl)cccc2Cl)c1C(N)=S`, the “activity, negative = inhibition” value is reported as inactive: 4.5%. `O=C(N/N=C/c1ccc(Sc2ccccn2)o1)c1cc2ccccc2cc1O` was tested, and the Potency was active: 14.1 µM. `Nc1ccc(-c2n[nH]c(=O)c3ccccc23)cc1N` was tested, and the Potency was inconclusive: 20 µM [inhibitor, single point]. For `Cc1nn(-c2cccc(Cl)c2)c(Cl)c1/C=N/NC(=O)c1cccnc1`, the Potency was inconclusive: 14.1 µM [inhibitor, partial curve, poor fit]. With `CNC(=S)N(CCc1c(C)[nH]c2ccc(C)cc12)Cc1ccc(OC)c(OC)c1` the Potency was inconclusive: 11.2 µM [inhibitor, partial curve]. `COc1ccc(CN(C)CC(=O)Nc2ccccc2C(F)(F)F)c(OC)c1` was tested, and the “activity, negative = inhibition” value was inactive: -2.13%. With `O=C(/C=C/c1ccc(Cl)c([N+](=O)[O-])c1)c1ccc(O)cc1` the Potency was active: 15.8 µM. With `Cc1ccc(CNC(=O)c2cc(-c3ccc(C)cc3)nc3n[nH]c(-c4cccc([N+](=O)[O-])c4)c23)cc1` the “activity, negative = inhibition” value was inactive: 4.36%. With `c1ccc(-n2cnc3ccccc32)cc1` the “activity, negative = inhibition” value was inactive: -1.42%. In the case of `O=C(COc1ccc([N+](=O)[O-])cc1)Nc1ccc(C(=O)Nc2ccccc2C(=O)O)cc1`, the Potency is reported as inconclusive: 3.16 µM [inhibitor, full curve]. For `Cc1cc(C(=O)N/N=C/c2ccc(O)c([N+](=O)[O-])c2)n[nH]1`, the Potency was inconclusive: 14.1 µM [inhibitor, partial curve]. With `O=C(O)CC12CSc3[nH]c(=O)sc3C1c1ccccc1OC2=O` (stereo not given) the Potency was active: 25.1 µM. For `CC(=O)Nc1ccc(NC(=O)/C(Cl)=C/c2ccccc2)cc1`, the Potency was inconclusive: 0.794 µM [inhibitor, full curve]. In the case of `Cc1cccc(CCNC(=O)c2cc3c(=O)n(C)c4ccccc4c3n2C)c1`, the Potency is reported as inconclusive: 6.31 µM [inhibitor, single point]. With `COc1ccccc1N1CCN(C(=O)c2c(C)oc3ncn(C)c(=O)c23)CC1` the “activity, negative = inhibition” value was inactive: 3.35%. With `O=C(CSc1nnc(COc2ccccc2)o1)Nc1nccs1` the Potency was inconclusive: 8.91 µM [inhibitor, partial curve]. For `CCCCc1ccc(C2C3=C(CC(C)(C)CC3=O)NC3=C2C(=O)c2ccccc23)cc1` (stereo not given), the “activity, negative = inhibition” value was inactive: -11.1%. With `Cc1cc2c(n1-c1ccc(C(=O)NCc3ccccc3Cl)cc1)CCCC2` the Potency was inconclusive: 25.1 µM [inhibitor, single point]. With `Cc1cc(C)c(NN=c2c(=O)c3ccccc3c2=O)c(C)c1` the Potency was inconclusive: 1.12 µM [inhibitor, full curve]. `CCc1cc2c(cc3c(=O)n(CCCC(=O)NCc4cccc(Cl)c4)ncn32)s1` was tested, and the “activity, negative = inhibition” value was inactive: -7.18%. With `C=C(C)CN(CC)C(=O)CSc1nc(O)cc(=O)n1C1CCCC1` the Potency was inconclusive: 25.1 µM [inhibitor, partial curve]. For `NC(=S)Nc1cccc2cc3ccccc3cc12`, the Potency was inconclusive: 14.1 µM [inhibitor, partial curve]. `CCOc1ccccc1NS(=O)(=O)c1ccc2c(c1)oc(=O)n2C` was tested, and the “activity, negative = inhibition” value was inactive: 4.96%. In the case of `CCOc1ccc(NC(=O)Cn2nnc3c(cnn3-c3ccc(F)cc3)c2=O)cc1`, the “activity, negative = inhibition” value is reported as inactive: -12.1%. For `O=C(c1ccccc1)N1CCCCC(Sc2nnnn2-c2ccccc2)C1=O` (stereo not given), the “activity, negative = inhibition” value was inactive: -4.36%. `Cc1cnc(C(=O)Nc2ccc(C(=O)N3CCCCC3)cc2)cn1` was tested, and the “activity, negative = inhibition” value was inactive: -11.2%. `C[C@@H](C(=O)NCCc1c[nH]c2ccccc12)[C@H]1C[C@]1(C)[C@H](NC(=O)OCc1ccccc1)c1ccccc1` was tested, and the Potency was inconclusive: 39.8 µM [inhibitor, single point]. With `O=S(=O)(NCc1nc2cccnc2n1Cc1ccccc1Cl)c1ccc2c(c1)CCCC2` the “activity, negative = inhibition” value was inactive: 1.94%. For `Cc1cc(NCc2ccccc2)nc(-c2ccccc2O)n1`, the Potency was inconclusive: 25.1 µM [inhibitor, partial curve].
